Experimental data: PubChem BioAssay (NCI)
“And” between values parts separate entries of the source, which are not always exact repeats. Equal entries are not always repeated.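 Exposure lasted 48 hours, with cells grown in 96-well plates and compounds tested at five concentrations. At the GI50, growth is halved. TGI: total growth inhibition.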

Test system: NCI-H322M lung
Assay: NCI anticancer screen, dose series, 48 h

SMILES	TGI	GI50 [µM]
CC1Cc2c(Br)nc(N)nc2NC1=O (centres undefined)	> 100 µM	–
CN(C)CCNC(=O)c1cc2ccccc2c2nc3ccccc3nc12	3.04 µM	–
Cc1nc(C)c(C(=O)NNC(=O)Cc2ccccc2)cc1C(=O)NNC(=O)Cc1ccccc1	> 100 µM	–
Cc1c(Cl)ccc2c1NC(=O)C2(O)C(C(=O)c1ccccc1)c1ccccc1 (centres undefined)	> 100 µM	–
Cn1nccc1Nc1nccc(-c2cc3c(s2)C(C)(C)N(CCN2CCOCC2)C3=O)n1	> 100 µM	3.96
COc1ccc2c(c1)C(=O)/C(=C/c1cccc(OCC(=O)Nc3nc4c(s3)CCCC4)c1)O2	26.5 µM	13.2
COc1ccc(CCN2C(=O)C=CC2=O)cc1OC	33.3 µM	–
COc1ccc(N2C(=O)C3c4[nH]c5ccc(OC)cc5c4C4CCC(C(C)(C)C)CC4C3C2=O)cc1 (centres undefined)	> 100 µM	–
Cc1ccc2c(c1)C(=O)/C(=C\c1ccccc1)CCS2(=O)=O	37.8 µM	–
O=S(=O)(O)O.[NH-]C1CCCCC1[NH-].[Pt+2] (centres undefined)	> 100 µM	> 100
CN(C)c1ccc(N2Cc3ccccc3OC3=C2C(=O)c2c(O)ccc(O)c2C3=O)cn1	5.16 µM	2.03
COCO[C@@H]1C[C@H]2C(O)Nc3ccccc3C(=O)N2C1 (some centres undefined)	> 100 µM	–
O=C(O)CCCCCCC[C@@H]1S[C@H]1CCCCCCO	> 100 µM	–
CC(=O)C1C(=O)C(=O)N(c2cccc(C)c2C)C1=O (centres undefined)	> 100 µM	–
CCCCON1C[C@@H](O)C(O)[C@@H](O)C1 (some centres undefined)	> 100 µM	–
Cc1ccc([N+](=O)[O-])c2c(NCCNC(=O)Cn3ccnc3[N+](=O)[O-])ccnc12	> 100 µM	–
C/C(=C\C(C)COCc1ccccc1)[C@H](COCc1ccccc1)OCc1ccccc1 (some centres undefined)	> 100 µM	–
CC1=CC(=NC(=O)CBr)C=C/C1=N\S(=O)(=O)c1ccccc1	28.3 µM	14.7
OC12c3ccccc3C1(N1CCOCC1)CCCCC21OCCCO1 (centres undefined)	> 100 µM	–
O=[N+]([O-])C(Cl)C(Cl)C(Cl)=C(Cl)Cl (centres undefined)	> 100 µM	–
COc1cccc(-c2cc(=O)c3cc(OC)c(OC)cc3[nH]2)c1	91.5 µM	–
O=c1[nH]nc(Cc2ccccc2)n1/N=C/c1c(O)ccc2ccccc12	57.7 µM	–
O=c1cccccc1NCCOCCNc1cccccc1=O	> 100 µM	–
COC(=O)CCC(=O)CC(=O)C1=NS(=O)(=O)c2nc(S(N)(=O)=O)c(Cl)cc2N1	> 100 µM	–

SMILES	TGI	GI50 [µM]
Oc1ccccc1-c1nn(CNc2cccc(Cl)c2)c(=S)o1	> 100 µM	5.49
Cc1ccc(Cl)c2c(=O)c3ccc([N+](=O)[O-])cc3sc12	> 100 µM	–
CC(=O)N1c2ccccc2C23CCN(C)CC4C(C)OCC(C4CC2=O)C13 (centres undefined)	> 100 µM	–
Cn1c2ccccc2c(=S)c2ccccc21	> 100 µM	–
CCN(CC)CC(=O)Nc1c(C(N)=O)nnn1Cc1cc(Cl)c(C(=O)c2ccc(Cl)cc2)c(Cl)c1	> 100 µM	–
CC(C)/C(Cl)=N\OC(=O)Nc1cccc(F)c1	26.7 µM	–
COc1ccc(NC(=O)CC(=O)N2N=C(N3CCCCC3)CC2c2ccccc2)cc1 (centres undefined)	> 100 µM	–
CC1(C)COC(C23C4C5C2C2C3C4C52I)=N1 (centres undefined)	> 100 µM	–
CCOP(C)(=O)C(Cc1c[nH]c2ccccc12)C(=O)O (centres undefined)	> 100 µM	–
CC1=NN(c2ccccc2)C(=O)C1N=Nc1ccc([As](=O)(O)O)c(O)c1 (centres undefined)	> 100 µM	–
COc1cc(O)c2c(O)c3c(c4c2c1[C@]1(C4)C(C)=CCCC1(C)C)[C@H](O)[C@@]1(O)CC(=O)C(C(N)=O)=C(O)[C@@]1(O)C3=O	1.75 µM	–
O=S(=O)(/C=C/c1ccc(Cl)cc1Cl)Cc1ccccc1CS(=O)(=O)/C=C/c1ccc(Cl)cc1Cl	> 100 µM	–
CN(NC(=O)c1ccco1)C1=NCCN1	> 100 µM	–
CS(=O)(=O)NNS(=O)(=O)c1cccc([N+](=O)[O-])c1	> 100 µM	–
CCOc1cccc(/C=N/NC(=O)c2ccc(Nc3ccnc(C(F)(F)F)c3)cc2)c1O	> 100 µM	1.09
Cc1ccc(NC(=O)CCC(CC(=O)C(C)(C)C)=NNC(=O)C(=O)NN)cc1C	> 100 µM	–
O=c1c2cccc(Cl)c2sc2c(NCCCNCCO)nc3ccccc3c12	13.8 µM	3.09
CC1=C(C)C(=O)O[C@@H]([C@](C)(O)[C@]2(O)CC[C@@]3(O)[C@@H]4C[C@H]5O[C@]56[C@@H](O)C=CC(=O)[C@]6(C)[C@H]4CC[C@]23C)C1	4.94 µM	–
CCC(C)(C)C(=O)O[C@H]1C[C@@H](C)C=C2C=C[C@H](C)[C@H](CC[C@@H]3C[C@@H](O)CC(=O)O3)[C@H]21	18.1 µM and > 30 µM	1.3
C[C@H]1O[C@@H](c2c(O)ccc3ccccc23)C[C@@H](N(C)C)C1O (some centres undefined)	> 100 µM	–
COC(=O)Nc1nc2ccc(Oc3ccc(NC(=O)Nc4cccc(C(=O)O)c4)cc3)cc2[nH]1	> 25 µM	> 19.3
Cc1cc(C)nc(NS(=O)(=O)c2ccc(Nc3nncc(=O)n3N)cc2)n1	> 100 µM	–
COc1ccc2c(c1)c(=O)c1ccccc1n2/C=C/C(=O)O	> 100 µM	–
CCCCCCCCCCCCCC(=O)O[C@H]1CC[C@H](NC(=O)[C@H](OC)[C@H](O)[C@@H](O)[C@H](O)/C=C/C(C)C)C(=O)NC1	23 µM and > 100 µM	–

SMILES	TGI	GI50 [µM]
COC(=O)NC1C(C)OC(OC2C/C=C(/C)C3C=CC4C(OC5CC(OC6CC(O)C(OC7CC(O)C(OC)C(C)O7)C(C)O6)C(O)C(C)O5)C(C)CC(C)C4C3(C)/C(O)=C3\C(=O)OC4(CC(C)C(CO)=CC4/C=C\2C)C3=O)CC1(C)[N+](=O)[O-] (centres undefined)	50 µM and 19.8 µM	16.6
CC(=O)c1cccc(NC(=O)/C(=N\NC(C)(C)C)c2c(O)c3ccccc3oc2=O)c1	> 100 µM	–
C#CCOC(=O)c1ccccc1O	> 100 µM	–
O=S1(=O)OCCOS(=O)(=O)C1I	> 100 µM	–
CC(=O)Oc1ccc2c(c1)Oc1cc(C(C)=O)ccc1C21OC(=O)c2ccccc21 (centres undefined)	> 100 µM	–
N#C[S-].[Nd+3].c1cnc2c(c1)ccc1cccnc12.c1cnc2c(c1)ccc1cccnc12.c1cnc2c(c1)ccc1cccnc12	12.4 µM	–
C/C=C(\C)C(=O)N[C@H]1CC[C@]2(C)C3CC[C@@]4(C)C(CC[C@@H]4C(C)N(C)C)C3CCC2[C@H]1OC(C)=O (some centres undefined)	4.03 µM	1.81
CC1=NN(c2cccc(Cl)c2)C2(SCC(=O)N2c2nc3ccccc3s2)/C1=C\c1ccc(Cl)cc1 (centres undefined)	> 100 µM	–
O=C1/C(=C/c2cccnc2)C(n2cccc2)c2c(Br)sc(Br)c21 (centres undefined)	4.03 µM	–
COc1cc(NS(C)(=O)=O)ccc1Nc1c2ccc(Cl)cc2nc2c(OC)cccc12	13.3 µM	2.71
C=CCCCC1CCCNC1=O (centres undefined)	> 100 µM	–
COc1c(Cl)c2c(c(OC)c1OC)-c1ccc(OC)c(=O)c(Cl)c1C(NC(C)=O)CC2 (centres undefined)	42.8 µM	–
O=c1cc(-c2cccc(C(F)(F)F)c2)[nH]c2cc3c(cc12)OCO3	50 µM and > 100 µM	0.689
COc1ccc2c(c1)c(-c1ccc(-c3cn(S(=O)(=O)c4ccccc4)c4ccc(OC)cc34)s1)cn2S(=O)(=O)c1ccccc1	> 100 µM	> 100
COc1ccc(C(=O)OCC2OC(n3cnc4c(=S)nc[nH]c43)C(OC(=O)c3ccc(OC)cc3)C2OC(=O)c2ccc(OC)cc2)cc1 (centres undefined)	> 100 µM	–
O=C1/C(=C/C=C/c2ccccc2)N=C(c2ccccc2)N1C1Nc2cc3c(cc2S1)NC(N1C(=O)/C(=C/C=C/c2ccccc2)N=C1c1ccccc1)S3 (centres undefined)	> 100 µM	–
Cc1nn(-c2nc3ccccc3s2)c(C)c1Oc1ccccc1O	26.7 µM	13.2
C[C@@H]1CN(C(=O)c2ccc(NC(=O)c3cc(O[C@H](C)c4c(Cl)ccc(F)c4Cl)c(N)nn3)cc2)C[C@H](C)N1	22.6 µM	10.8
Nc1nc(N)c(N=O)c(Nc2ccc(O)cc2)n1	> 100 µM	–
CC1=NN(c2nc(N)nc(CCl)n2)CC1	> 100 µM	–
Cn1ccnc1C(=O)/C=C/c1ccc(C(=O)Nc2ccc(Cl)cc2)cc1	4.27 µM	0.913
COc1cc2nc(-c3cnc(N(C)C)nc3)nc(NC3CCN(Cc4ccccc4)CC3)c2cc1OC	3.13 µM	1.7
COC(=O)CCCN(C)c1n[nH]c(N)n1	> 100 µM	–
CCSc1nc(N)c2c(-c3ccc(OC)c(OC)c3)c3c(nc2n1)CCCC3	> 100 µM	–

SMILES	TGI	GI50 [µM]
CC(C)=CC1C(COC(=O)c2cc3c(cc2Cl)OCO3)C1(C)C (centres undefined)	> 100 µM	–
COc1ccc(N(CC(=O)NCCC[Te]c2ccccc2)C(=O)c2ccccc2)cc1	8.18 µM	2.87
CC1(c2ccc(F)cc2)CC(c2ccc(F)cc2)=C(C#N)C(=C(C#N)C#N)N1 (centres undefined)	28 µM	–
Cc1nc(Cl)nc(Cl)c1C	> 100 µM	–
O=C(Nc1ccccc1O)c1cccc(NC2=C(Cl)C(=O)N(Cc3ccccc3)C2=O)c1	29 µM	15.6
OCC(CN1CCCCC1)(CN1CCCCC1)CN1CCCCC1	> 100 µM	–
COC(OC)C1OC(CO)C(n2cc(C)c(=O)[nH]c2=O)C1O (centres undefined)	> 100 µM	–
O=C1CCCCC/C1=C\c1ccc(F)cc1	> 100 µM	–
O=c1cc(-c2ccccc2)[nH]c2cc(F)c(F)cc12	> 100 µM	–
[O-]c1c2c(nn1-c1ccccc1)c1ccccc1c[n+]2Cc1ccccc1	> 100 µM	–
Oc1ccc(-c2nnc3sc(-c4ccc(F)c(Oc5ccccc5)c4)nn23)cc1	> 100 µM	49.5
CC1=NN(c2ccccc2)C(=O)C1=C1SCCS1	> 100 µM	–
O=C(O)CNC(=O)CO/N=C1/C(c2c(O)[nH]c3ccccc23)=Nc2ccccc21	> 100 µM	–
Cc1nc2c(n1CCO)C(=O)c1ccccc1C2=O	> 100 µM	–
COc1c(C)c(C/C=C(\C)CCCCO[Si](C(C)C)(C(C)C)C(C)C)c(OC)c2ccccc12	> 100 µM	–
COc1cc2cc(C(=O)N3CC(CCl)c4c3cc([N+](=O)[O-])c3ccccc43)[nH]c2c(OC)c1OC (centres undefined)	> 100 µM	–
CC(C)=CCC[C@H](C)[C@@H]1CC[C@]2(C)C3CC[C@]4(OC4(C)C)C(CCCO)[C@]3(C)CC[C@@]12C (some centres undefined)	36.9 µM	17.3
COc1ccc(-c2[nH]c3ccccc3c2C=C(C#N)C#N)cc1	> 100 µM	0.49
CC[C@@H](C(=O)[C@@H](C)[C@@H](O)[C@H](C)[C@@H]1O[C@@H]([C@@H](CC)C(=O)O)CC[C@@H]1C)C1O[C@]2(C=CC(=O)[C@]3(CC[C@@](C)([C@H]4CC[C@](O)(CC)[C@H](C)O4)O3)O2)[C@H](C)C[C@@H]1C (some centres undefined)	19.8 µM	4.11
COC1=C2CC(C)CC(OC)[C@@H](OC(=O)CCN)[C@H](C)/C=C(\C)C(OC(N)=O)C(OC)/C=C\C=C(/C)C(=O)NC(=CC1=O)C2=O (some centres undefined)	30.2 µM	–
N#Cc1ccc(Oc2nc3ccccc3nc2-c2ccccc2)cc1	> 100 µM	–
CC1C(=O)OC2CC[N+]3(CC(=O)c4ccc(Br)cc4)CC=C(COC(=O)C(C)(O)C1(C)O)C23 (centres undefined)	> 375 µM	–
